According to the RNAGym collection of RNA variant scans (doi:10.1073/pnas.2313332121):
Variants at the floor of the assay are shown more often than the library holds them.

B1: TPR 5TU (parent)
chain: GGAUCUUCUCGAUCUAACAAAAAAGACAAAUCUGCCACAAAGCUUGAGAGCAUCUUCGGAUGCAGAGGCGGCAGCCUUCGGUGGCGCGAUAGCGCCAACGUUCUCAACUAUGACACGCAAAACGCGUGCUCCGUUGAAUGGAGUUUAUCAUG

Variants of: B1
Assay: polymerase ribozyme fitness, log enrichment relative to wild type (log ratio); higher = more active; in vitro selection for triplet polymerase activity
Outline: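 A single round of triplicate in vitro selection, including frozen incubation at −7 °C, was applied to PCR-built, transcribed mutant libraries of each subunit of a heterodimeric triplet polymerase ribozyme. Illumina sequencing of input and output libraries retained genotypes with ≥10 input reads and ≥1 read per output. Fitness is the base-2 logarithm of genotype enrichment divided by wild-type enrichment, from inverse-variance-weighted replicate averages.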

G34A A39G G71C C87A C99U C118U and C36G C76U C87U A91C A97U U109C A142C cannot be ordered by “polymerase ribozyme fitness (log ratio)” value: ≤ -4.2 for the first, ≤ -4.2 for the second.

U33G A121C A137U A147G and C35U U78G A142C cannot be ordered by “polymerase ribozyme fitness (log ratio)” value: ≤ -4.2 for the first, ≤ -4.2 for the second.

C32U A39G G50U A73G U109C G126A G133U and C35A A52G U78A C103A cannot be ordered by “polymerase ribozyme fitness (log ratio)” value: ≤ -4.2 for the first, ≤ -4.2 for the second.

Going from C35U A40U G42C C54A C76G C85A to C36A G84U C114A A120U G143U, the “polymerase ribozyme fitness (log ratio)” value rises from ≤ -4.2 to -4.19.

C35G U90A C96A U104G A119U C125A and C36U A47G A91U C114A A119U U139A cannot be ordered by “polymerase ribozyme fitness (log ratio)” value: ≤ -4.2 for the first, ≤ -4.2 for the second.

C36A C63U G71U C87G and C32U C38U A49C C85A G126C cannot be ordered by “polymerase ribozyme fitness (log ratio)” value: ≤ -4.2 for the first, ≤ -4.2 for the second.

C35G G48U G70A G92C C96G U146A and C35U G46C G50U C57G C75U C114U C132A cannot be ordered by “polymerase ribozyme fitness (log ratio)” value: ≤ -4.2 for the first, ≤ -4.2 for the second.

U33G C114A C118G A137C and C35G U45A C57A C87A C93G A107U C125U cannot be ordered by “polymerase ribozyme fitness (log ratio)” value: ≤ -4.2 for the first, ≤ -4.2 for the second.

G34A C87U C105U U145G and C36G A47G U55C G84U C149A cannot be ordered by “polymerase ribozyme fitness (log ratio)” value: ≤ -4.2 for the first, ≤ -4.2 for the second.

Compared with C32U A60G A142G, C35G A73G C75U C99A is lower in “polymerase ribozyme fitness (log ratio)” value: -3.31 for the first, ≤ -4.2 for the second.

G34C U55G G65A and C35G C69A C76A C118G U127C cannot be ordered by “polymerase ribozyme fitness (log ratio)” value: ≤ -4.2 for the first, ≤ -4.2 for the second.

First: G34A A49C C95U G140U G141A
Second: C35U C95U C96G
The “polymerase ribozyme fitness (log ratio)” value of the first is lower: ≤ -4.2 for the first, -1.52 for the second.

C36A G84A G124C and C36A C79A C99G U111C A122G A138G cannot be ordered by “polymerase ribozyme fitness (log ratio)” value: ≤ -4.2 for the first, ≤ -4.2 for the second.

C36A U56G C87U G88A C99A U127G and C36A C75U G83A A89C C99G C105U C123A C125A cannot be ordered by “polymerase ribozyme fitness (log ratio)” value: ≤ -4.2 for the first, ≤ -4.2 for the second.

C36G A52C U53A A73U C85U C131U and U33G C87A A142U cannot be ordered by “polymerase ribozyme fitness (log ratio)” value: ≤ -4.2 for the first, ≤ -4.2 for the second.

C35A C57G G58U U77A and C35A C108G C116A A142U cannot be ordered by “polymerase ribozyme fitness (log ratio)” value: ≤ -4.2 for the first, ≤ -4.2 for the second.

C35A U101A and G34A C93G C105G cannot be ordered by “polymerase ribozyme fitness (log ratio)” value: ≤ -4.2 for the first, ≤ -4.2 for the second.

C35U A49C U53A G68A C116U G141U and C32U C38U C93G A122G G126C U145A cannot be ordered by “polymerase ribozyme fitness (log ratio)” value: ≤ -4.2 for the first, ≤ -4.2 for the second.

Compared with C36A U55A A66U U144A, G34U C54U U78G G83A C108G is higher in “polymerase ribozyme fitness (log ratio)” value: ≤ -4.2 for the first, -4.13 for the second.

C36G U55A U61A C76A C93U U135G and C36A C85A A138U cannot be ordered by “polymerase ribozyme fitness (log ratio)” value: ≤ -4.2 for the first, ≤ -4.2 for the second.

U33A G74A and C35U C85U C93G G94U C99U U104A G128A C131G G143U cannot be ordered by “polymerase ribozyme fitness (log ratio)” value: ≤ -4.2 for the first, ≤ -4.2 for the second.

G34C U55G G84A C108A C132A and C35A G88U U101A U130C cannot be ordered by “polymerase ribozyme fitness (log ratio)” value: ≤ -4.2 for the first, ≤ -4.2 for the second.

U33G G67U C85G C96G A122G G140A and C32U U53A G84U A120G G128U A142U cannot be ordered by “polymerase ribozyme fitness (log ratio)” value: ≤ -4.2 for the first, ≤ -4.2 for the second.

Going from U33A A41C U55A C63U G71A C105A A147C to C35U U56A C57A A97U C123U U130C, the “polymerase ribozyme fitness (log ratio)” value rises from ≤ -4.2 to -0.0554.

G34U A49C C76G A106G A137C and C36A G48C G86A cannot be ordered by “polymerase ribozyme fitness (log ratio)” value: ≤ -4.2 for the first, ≤ -4.2 for the second.

C35G G42U C95A and C32U C87U C103G cannot be ordered by “polymerase ribozyme fitness (log ratio)” value: ≤ -4.2 for the first, ≤ -4.2 for the second.

U33A A49C G59A G81U and G34A G58C G92C C105G C114U G126C U134G cannot be ordered by “polymerase ribozyme fitness (log ratio)” value: ≤ -4.2 for the first, ≤ -4.2 for the second.

C36A U45A C87G A91G and C35U U45A A66U C69A G126C G143A cannot be ordered by “polymerase ribozyme fitness (log ratio)” value: ≤ -4.2 for the first, ≤ -4.2 for the second.

U33C C51A C85U U134A and U33G G50A A52C C76U C79U A107G U151A cannot be ordered by “polymerase ribozyme fitness (log ratio)” value: ≤ -4.2 for the first, ≤ -4.2 for the second.

C35U G50C C93G G126U G136C G141A and C35U U45G G59C C75U A89U G92C A138G G143U cannot be ordered by “polymerase ribozyme fitness (log ratio)” value: ≤ -4.2 for the first, ≤ -4.2 for the second.

Going from C35U C116A to C35A G94A, the “polymerase ribozyme fitness (log ratio)” value falls from -0.104 to -3.56.

C35U G50U U56A G68A C85U A137C and C36A A40U G81A C87G A89C C118G A122G G141U G143A U146G cannot be ordered by “polymerase ribozyme fitness (log ratio)” value: ≤ -4.2 for the first, ≤ -4.2 for the second.

C35U G50C G81A A98C A107U A110G and G34C C85U C96G C132U cannot be ordered by “polymerase ribozyme fitness (log ratio)” value: ≤ -4.2 for the first, ≤ -4.2 for the second.

C32U U53A A91C G94A C105G A121U U151C and C32G U77C C85A C131A cannot be ordered by “polymerase ribozyme fitness (log ratio)” value: ≤ -4.2 for the first, ≤ -4.2 for the second.

U33C G59U C85U G124A A137U G140C and C35A U55G C69A G140A cannot be ordered by “polymerase ribozyme fitness (log ratio)” value: ≤ -4.2 for the first, ≤ -4.2 for the second.

C35G G59A C75U A89G C96A and C35G U55G G81A A98G U102A cannot be ordered by “polymerase ribozyme fitness (log ratio)” value: ≤ -4.2 for the first, ≤ -4.2 for the second.

U33G C35A C95G A120G C125U and C36A A73U C95G A122U A147U cannot be ordered by “polymerase ribozyme fitness (log ratio)” value: ≤ -4.2 for the first, ≤ -4.2 for the second.

U33C A41U C57U G70C G83A A119C and C36A A64U A107U U139A G140C cannot be ordered by “polymerase ribozyme fitness (log ratio)” value: ≤ -4.2 for the first, ≤ -4.2 for the second.

U33G A142U U144C and C32U A40C C85G C103A cannot be ordered by “polymerase ribozyme fitness (log ratio)” value: ≤ -4.2 for the first, ≤ -4.2 for the second.

Compared with U33G G117A U134C, G34U C95G A97U G100U G128A C132G U135C is lower in “polymerase ribozyme fitness (log ratio)” value: -2.88 for the first, ≤ -4.2 for the second.

C35U C54G C57G C69U U82A A91U G92A A113G and U33C G50A A121C A142G cannot be ordered by “polymerase ribozyme fitness (log ratio)” value: ≤ -4.2 for the first, ≤ -4.2 for the second.

First: C35U A91G
Second: G34A A40U U45C C69A C76A C87U G94A A106G A122U G124C U151A
The “polymerase ribozyme fitness (log ratio)” value of the first is higher: -2.83 for the first, ≤ -4.2 for the second.
